In all, about 390,000 compounds went through this assay and about 4,000 (1%) were called active. The inconclusive results got no clear call from the source; some entries with a clear call stand among them for comparison. Calls follow the shape of the dose curve; as a rule, active = well fitted inhibition curve with a large enough effect; inconclusive = small, poorly fitted or top-dose-only effect; inactive = no such curve, though single readings can be large or run the other way. Potencies of inconclusive entries are doubtful fits and often do not repeat.
What follows are compounds tested against Thioredoxin reductase 1, cytoplasmic (Rattus norvegicus) (UniProt O89049) (assay: qHTS Assay for Inhibitors of Mammalian Selenoprotein Thioredoxin Reductase 1 (TrxR1): qHTS). Details: recombinant rTrxR1, NADPH fluorescence consumption, selenite substrate; series mostly up to 114 µM.
UniProt O89049, sequence (O89049 whole entry, looked up): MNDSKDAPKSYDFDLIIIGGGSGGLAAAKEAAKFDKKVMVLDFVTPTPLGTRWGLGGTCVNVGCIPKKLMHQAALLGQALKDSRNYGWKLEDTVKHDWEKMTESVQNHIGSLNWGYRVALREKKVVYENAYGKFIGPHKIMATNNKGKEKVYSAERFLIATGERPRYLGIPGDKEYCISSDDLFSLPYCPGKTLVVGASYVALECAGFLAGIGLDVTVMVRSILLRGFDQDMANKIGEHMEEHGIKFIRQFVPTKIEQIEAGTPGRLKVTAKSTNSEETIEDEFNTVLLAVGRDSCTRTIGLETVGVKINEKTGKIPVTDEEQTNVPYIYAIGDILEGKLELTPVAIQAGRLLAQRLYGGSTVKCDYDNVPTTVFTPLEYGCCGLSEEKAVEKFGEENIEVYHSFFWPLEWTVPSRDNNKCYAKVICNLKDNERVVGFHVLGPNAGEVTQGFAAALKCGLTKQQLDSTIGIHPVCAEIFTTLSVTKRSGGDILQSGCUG
Summary of the method: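 Rat TrxR1 (90 nM in the dispensed reagent) was pre-reduced with 400 uM NADPH for 5 min at room temperature, then incubated with compound for 15 min. After 400 uM selenite was added, NADPH fluorescence (Ex 340/Em 450 nm) was followed for 8 min.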
Also: nearly all actives have a fitted effect of over 65% in size.
Potency is read from the fitted curve at half-maximal effect; tags tell the direction and shape of the fitted curve.

**Q.** `CCCCCCCCCCCCCCSCC(=O)O` was tested. Which Potency did it give?
**A.** inconclusive: 23.8 µM [inhibitor, single point]

**Q.** For `O=C(Nc1cccc(C(F)(F)F)c1)c1ccc2nc(-c3ccco3)c(-c3ccco3)nc2c1`, which Potency is on record?
**A.** active: 5.01 µM

**Q.** With `COc1ccc(-c2ccc(-c3nc4c(c(=O)[nH]c(=O)n4Cc4ccccc4)n3C)o2)c([N+](=O)[O-])c1` as the compound, how does the Potency read?
**A.** inactive

**Q.** How did the Potency turn out when `Cc1cc(/C(N)=N/OC(=O)c2ccc(Cl)cc2)no1` was run?
**A.** inactive

**Q.** Which Potency does the source give for `O=S(=O)(Nc1ccccn1)c1cccc(S(=O)(=O)c2ccc(Br)cc2)c1` here?
**A.** inconclusive: 4.47 µM [inhibitor, full curve]

**Q.** Which Potency does the source give for `COc1cccc(CN(C)CC(=O)Nc2cccc(S(=O)(=O)N(C)c3ccccc3)c2)c1OC` here?
**A.** inactive

**Q.** `CCCCNC(=O)[C@H](CSCc1ccccc1)N1Cc2ccccc2C1=O` was tested. Which Potency did it give?
**A.** inconclusive: 89.1 µM [inhibitor, partial curve, poor fit]

**Q.** With `CCc1nnc(NS(=O)(=O)c2ccc(N=CC3=C(O)CC(C)(C)CC3=O)cc2)s1` as the compound, how does the Potency read?
**A.** inconclusive: 89.1 µM [inhibitor, partial curve, poor fit]

**Q.** For `Cc1ccc(-n2nc3c(c2NC(=O)c2ccc4c(c2)OCO4)CS(=O)C3)cc1` (stereo not given), which Potency is on record?
**A.** inconclusive: 28.2 µM [inhibitor, single point]

**Q.** Which Potency does the source give for `CCCCCn1c(SCCCC)nc2c1c(=O)[nH]c(=O)n2C` here?
**A.** inactive

**Q.** `Cc1cc(O)c(C(C)C)cc1N=Cc1ccc([N+](=O)[O-])cc1` was tested. Which Potency did it give?
**A.** inconclusive: 44.7 µM [inhibitor, partial curve]

**Q.** Which Potency does the source give for `COc1ccc(OC)c(C2CC(=O)N3CN(c4ccccc4)CSC3=C2C#N)c1` (stereo not given) here?
**A.** inconclusive: 15.8 µM [inhibitor, partial curve, poor fit]

**Q.** Which Potency does the source give for `COc1ccc(NC(=O)N/C=C/c2ccco2)cc1` here?
**A.** inconclusive: 50.1 µM [inhibitor, partial curve, poor fit]

**Q.** With `Oc1ccccc1-c1nc2c3ccccc3c3ccccc3c2[nH]1` as the compound, how does the Potency read?
**A.** inconclusive: 70.8 µM [inhibitor, partial curve]

**Q.** With `O=C(Nc1cc(Cl)ccc1O)c1cc(-c2ccc3c(c2)OCO3)on1` as the compound, how does the Potency read?
**A.** inconclusive: 89.1 µM [inhibitor, single point]

**Q.** For `Cc1ccc(/C=C/C(=O)NC2CCCCCCC2)o1`, which Potency is on record?
**A.** inconclusive: 2.51 µM [inhibitor, full curve, poor fit]

**Q.** Which Potency does the source give for `COCC(=O)N(CCc1ccc(OC)cc1)Cc1nc2ccccc2c(=O)[nH]1` here?
**A.** inactive

**Q.** How did the Potency turn out when `COc1ccc(C(C)=O)cc1COc1ccccc1[N+](=O)[O-]` was run?
**A.** active: 35.5 µM

**Q.** For `Cc1ccc(C)c(NC(=S)NC(=O)c2cncc(Br)c2)c1`, which Potency is on record?
**A.** inconclusive: 17.8 µM [inhibitor, single point]

**Q.** For `COc1ccc(NC(=O)CC2Sc3ncnn3C2=O)cc1` (stereo not given), which Potency is on record?
**A.** active: 1.58 µM

**Q.** `CC(C)(C)C(=O)Nc1ccc(C(=O)NNC(=O)c2ccccc2)cc1` was tested. Which Potency did it give?
**A.** inactive

**Q.** Which Potency does the source give for `Cc1nn(-c2ccccc2)c2nc(-c3ccco3)cc(C(=O)O)c12` here?
**A.** inconclusive: 25.1 µM [inhibitor, single point]

**Q.** For `CCOC(=O)c1cc(CC)sc1NC(=O)CN1CCN(C(=O)c2ccco2)CC1`, which Potency is on record?
**A.** active: 35.5 µM

**Q.** How did the Potency turn out when `CCOC(=O)C1(Cc2cccc(F)c2)CCN(C(=O)C2CCC2)CC1` was run?
**A.** inactive

**Q.** How did the Potency turn out when `O=S(=O)(c1ccc(Cl)c(NC(=S)Nc2cccc(O)c2)c1)N1CCOCC1` was run?
**A.** inconclusive: 28.2 µM [inhibitor, single point]

**Q.** `Cc1nc(-c2ccccc2)sc1-c1ccc(SCC(=O)Nc2ccccc2)nn1` was tested. Which Potency did it give?
**A.** inactive

**Q.** With `COc1ccc(N2Cc3cccc(C(=O)N4CCN(C(=O)c5ccco5)CC4)c3C2=O)cc1` as the compound, how does the Potency read?
**A.** inconclusive: 15.8 µM [inhibitor, partial curve]

**Q.** For `N#Cc1c(N)n(CCNC(=O)c2cccs2)c2nc3ccccc3nc12`, which Potency is on record?
**A.** inconclusive: 70.8 µM [inhibitor, single point]

**Q.** For `Cc1ccc(NC(=O)C2=C(c3ccccc3)S(=O)(=O)CCS2(=O)=O)cc1`, which Potency is on record?
**A.** active: 0.316 µM

**Q.** Which Potency does the source give for `CCOC(=O)COc1ccccc1/C=C\[N+](=O)[O-]` here?
**A.** active: 2.82 µM

**Q.** How did the Potency turn out when `COc1cc(/C=C(\C#N)C(=O)NCC2CCCO2)ccc1OC(=O)c1ccco1` (stereo not given) was run?
**A.** inconclusive: 28.2 µM [inhibitor, full curve]

**Q.** How did the Potency turn out when `Cc1ccc2nccnc2c1` was run?
**A.** inconclusive: 28.2 µM [inhibitor, partial curve]

**Q.** How did the Potency turn out when `CC(C)N1C(=O)CC(Nc2ccc(N3CCOCC3)cc2)C1=O` (stereo not given) was run?
**A.** inconclusive: 89.1 µM [inhibitor, single point]

**Q.** How did the Potency turn out when `Cc1cccc(C(=O)NC(=S)NNC(=O)c2cccs2)c1` was run?
**A.** inconclusive: 50.1 µM [inhibitor, partial curve]

**Q.** How did the Potency turn out when `COc1cc(-c2noc(C)c2/C=C/c2ccc(OC(C)=O)cc2)cc(OC)c1OC` was run?
**A.** inconclusive: 70.8 µM [inhibitor, partial curve]

**Q.** How did the Potency turn out when `CCc1nccn1C(=O)c1cnn2c(C(F)F)cc(-c3ccc(C)cc3)nc12` was run?
**A.** inconclusive: 63.1 µM [inhibitor, single point]

**Q.** How did the Potency turn out when `O=[N+]([O-])c1ccccc1-c1nc(-c2ccc(Br)o2)no1` was run?
**A.** inconclusive: 17.8 µM [inhibitor, partial curve, poor fit]

**Q.** How did the Potency turn out when `S=c1[nH]nc(COc2ccccc2)n1/N=C/c1ccccc1Br` was run?
**A.** inactive

**Q.** Which Potency does the source give for `CCCCNC(=S)Nc1ccc([N+](=O)[O-])cc1` here?
**A.** inactive

**Q.** How did the Potency turn out when `O=C(CC(c1ccccc1)c1ccccc1)OCn1nnc2ccccc2c1=O` was run?
**A.** inactive

**Q.** `COc1cc(S(=O)(=O)NC2CCCCC2C)ccc1-n1cnnn1` (stereo not given) was tested. Which Potency did it give?
**A.** inconclusive: 7.08 µM [inhibitor, single point]

**Q.** How did the Potency turn out when `Oc1ccc(C2=NN(c3ccccc3)C(c3ccc(F)cc3)C2)cc1` (stereo not given) was run?
**A.** inconclusive: 39.8 µM [inhibitor, single point]

**Q.** With `O=C1CC(N(O)c2ccccc2)C(=O)N1c1cc(Cl)cc(Cl)c1` (stereo not given) as the compound, how does the Potency read?
**A.** inconclusive: 20 µM [inhibitor, partial curve, poor fit]

**Q.** How did the Potency turn out when `Cc1cc(CN(C)C(=O)CC2C(=O)NCCN2Cc2ccc(-c3ccccc3)cc2)on1` (stereo not given) was run?
**A.** inconclusive: 89.1 µM [inhibitor, single point]

**Q.** `O=c1ccc(=O)n(-c2ccccc2)[nH]1` was tested. Which Potency did it give?
**A.** inconclusive: 39.8 µM [inhibitor, single point]

From PubChem BioAssay AID588453 (National Center for Advancing Translational Sciences (NCATS), 2011)
